In PubChem BioAssay AID434955 (Southern Research Specialized Biocontainment Screening …, 2010):
Some of the results follow. The main result of the screen is listed elsewhere. These columns were measured beside it and carry no call. The list favours compounds with an active or inconclusive main result.

assay: beta-lactam sensitization of Mtb H37Rv, H37Rv (AID 434955);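 also: growth measured after seven days incubation then overnight dye step; 0% = bacteria only wells and 100% = bacteria with antibiotic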; details: M. tuberculosis H37Rv growth with meropenem, percent inhibition; measured here: primary screen without meropenem; at 25 µM

Row | Structure (SMILES) | inhibition [%]
1 | CCC1(CC)Cc2ccccc2C(N)=C1C#N | 23.4
2 | CC(C)/C=C/CN1CCC(Oc2ccc(C(=O)N3CCCC3)cc2)CC1 | 2.41
3 | Cc1ccccc1CSc1nnc(C)c(=O)n1N | 0.74
4 | Cc1nn(C)c(Cl)c1CN1CCCC(C(=O)Nc2ccc(-c3cscn3)cc2)C1 (configuration not stated) | 6.67
5 | CCOc1ccc(NC(=O)CN(C)C(=O)c2cccnc2Sc2ccc(C)c(C)c2)cc1OCC | -0.64
6 | Cc1cccc(N(C)S(=O)(=O)c2cc3c(cc2C)n(C)c(=O)c(=O)n3C)c1 | -11.2
7 | CCc1cc2c(=O)nc3n(c2s1)Cc1ccccc1/C3=C(/O)c1ccc(F)cc1 | 33.5
8 | COc1ccc(CCN=C(N)NS(=O)(=O)c2ccc(F)cc2)cc1OC | -2.35
9 | Cn1c(Cl)nc2c1c(=O)n(Cc1cccc(Br)c1)c(=O)n2C | 3.13
10 | CCCc1nc2sc3c(c2c(=O)n1NC(=O)CCC(=O)O)CCCC3 | -0.6
11 | COc1cccc(-c2cc(C(=O)NCc3ccc(Cl)cc3)no2)c1 | 9.59
12 | CC(C)(C)c1ccc(-n2ncc3c2CCCC3NC(=O)C2=NNC(=O)CC2)cc1 (configuration not stated) | 8.03
13 | CCn1c(SCC(=O)Nc2cc(C)on2)nc2c1c(=O)n(C)c(=O)n2C | -3.82
14 | Cc1cccc(C)c1OCc1cc(C(=O)N2CCN(C3CCCC3)CC2)no1 | 7.8
15 | COc1cccc(C2N(c3ccc(Cl)cc3)C(=O)C3CCCN32)c1 (configuration not stated) | -11.3
16 | CCCCOc1ccc(C(=O)Nc2ccc(OCC(=O)N3CCOCC3)cc2)cc1 | 1.19
17 | O=[N+]([O-])c1nn(-c2ccc3c(c2)OCCO3)n(O)c1=NCc1ccc(F)cc1 | 65.3
18 | COc1c(Cl)ccc(Cl)c1C(=O)NC(=O)N1CCOCC1 | -6.73
19 | Cc1cc(NC(=O)c2cccc(S(=O)(=O)Nc3cccc(C(=O)O)c3)c2)no1 | -2.76
20 | COc1ccc(CCN2CC(C(=O)N3CCC(O)(c4ccccc4)CC3)CCC2=O)cc1 (configuration not stated) | -3.11
21 | CC1CC(C)CN(CCCNC(=O)CN2C(=O)c3cccnc3Oc3ccccc32)C1 (configuration not stated) | 5.47
22 | O=C(c1cnn2c(C(F)F)cc(-c3ccccc3)nc12)N1CCOCC1 | -4.89
23 | O=C(c1cccc(C(=O)N2CCN(c3ccc(F)cc3)CC2)c1)N1CCN(c2ccc(F)cc2)CC1 | 19.3
24 | O=C(CSC1=NCCS1)Nc1nc2c(s1)CCCC2 | -8.84
25 | O=C(Nc1cccc(Cl)c1)c1nc[nH]c1C(=O)NCc1ccccc1 | 67.7

Row | Structure (SMILES) | inhibition [%]
26 | CN(C)S(=O)(=O)c1cccc(NC(=O)c2ccncc2)c1 | -5.37
27 | CCN1C[C@]2(CO)CC[C@H](OC)[C@@]34C2[C@H](OC)[C@@](O)(C13)[C@@]1(O)C[C@H](OC)[C@H]2C[C@@H]4[C@@H]1[C@H]2OC | 4.39
28 | Cc1ccccc1C(=O)Nc1ccccc1N1CCN(C(=O)c2ccccc2)CC1 | 4.68
29 | O=C1c2ccccc2C(Nc2ccc3c(c2)OCCO3)N1c1ccccn1 (configuration not stated) | -4.15
30 | CC(=O)Nc1ccc(C(=O)OCCCOC(=O)c2ccc(NC(C)=O)cc2)cc1 | 3.48
31 | CCCCOC(=O)COc1cc(C)cc2oc(=O)c3c(c12)CCC3 | 0.54
32 | CCC(=O)N1CC2(C)CN(C(=O)CC)CC(C)(C1)C2 | -2.78
33 | O=C1CC(c2ccc(Cl)cc2)CC(O)=C1C=NCc1ccc(Cl)c(Cl)c1 (configuration not stated) | 4.95
34 | COc1ccc(N2C(=O)NC(=O)/C(=C\c3ccc([N+](=O)[O-])s3)C2=O)cc1 | -7.84
35 | O=S1(=O)CCO[C@H]2Cc3ccccc3[C@H]2N1Cc1ccccc1 | 14.2
36 | Cc1ccc(CSC2=NCCN2S(=O)(=O)c2ccc(F)cc2)cc1 | 8.02
37 | CCCC(=O)Nc1nc(-c2ccccc2)ns1 | 3.2
38 | COc1ccc(C(=O)N2CCCCCC2)cc1OC1CCN(C(C)=O)CC1 | 6.24
39 | Cn1c(C=O)c(-c2ccc3cc[nH]c3c2)c2ccccc21 | 74.6
40 | CCCCN(CC)CCNS(=O)(=O)c1ccc2c(c1)oc(=O)n2C | -0.75
41 | COc1cc2[nH]c(=O)n(CCCC(=O)N3CC=C(c4ccccc4)CC3)c(=O)c2cc1OC | -2.75
42 | Cc1ccc(-c2[nH]ncc2CN2CCN(C(=O)c3cccs3)CC2)cc1C | 6.73
43 | CN(CCCN1CCCCC1)C(=O)c1cc(COc2ccc(F)cc2F)on1 | 0.64
44 | Cc1ccc(C)c(-c2nnc(NC(=O)Cc3ccc(F)cc3)o2)c1 | 69.8
45 | CCCNc1c(NS(=O)(=O)c2ccc(Br)cc2)c(=O)oc2ccccc12 | 12.7
46 | COc1ccc(C2CC(c3ccc(Cl)cc3Cl)Nc3nc(N)nn32)cc1 (configuration not stated) | -0.54
47 | CCCCn1nc(NS(=O)(=O)c2cccc3nonc23)c2cc3cccc(C)c3nc21 | 2.89
48 | CC(=O)N1c2ccc(S(=O)(=O)N3CCCC3C(=O)NCc3ccc(Cl)cc3)cc2CC1C (configuration not stated) | 2.84
49 | O=C(COC(=O)C1CC1)c1c[nH]c2ccccc12 | 38.7
50 | COc1ccc(-c2nc(CSCC(=O)N3CCC4(CC3)OCCO4)c(C)o2)cc1OC | 2.14

Row | Structure (SMILES) | inhibition [%]
51 | Cc1nc2ccccn2c1C(=O)NNC(=O)Nc1ccccc1 | -2.53
52 | O=C(Nc1cc([N+](=O)[O-])ccc1C(=O)NCCN1CCOCC1)c1ccccc1 | 5.18
53 | O=C(NCc1nc2ncc(Br)cc2[nH]1)c1ccccc1 | 35.2
54 | C=CCc1cc(Cl)ccc1OCCOCCNCCOC | -11.6
55 | NC(=O)C1CCN(C(=O)CCNS(=O)(=O)c2cc(Br)cnc2N)CC1 | -3.44
56 | COc1ccccc1N1CCN(c2cc(C)nc3nc(C)nn23)CC1 | 4.33
57 | CN(C)C(=O)CSc1nnc(C23CC4CC(CC(C4)C2)C3)o1 | 22.9
58 | Cc1c(C(=O)c2ccccc2)oc2ccc3ccccc3c12 | 17.1
59 | O=C(OCC1CC(c2ccccc2Cl)=NO1)c1ccc(Br)cc1 (configuration not stated) | 18
60 | Cn1nnnc1Sc1ncnc2scc(-c3ccc(C(F)(F)F)cc3)c12 | 63.6
61 | CCC(C)NC(=O)/C=C/c1cccs1 (configuration not stated) | 2.22
62 | O=C(ONc1ccc(N=NC(=O)c2ccccc2O)cc1)c1ccccc1 | -1.07
63 | COc1c(F)c(F)c(C(=O)O)c(Nc2ccc(C)cc2)c1F | -11.6
64 | COc1ccccc1C(=O)Nc1ccc2c3c(cccc13)CC2 | 42.2
65 | CCOC(=O)N1CCN(C2CCCN(C(=O)c3ccccc3N(C)C)C2)CC1 (configuration not stated) | 1.52
66 | CCOC(=O)c1sc2ncnc(NCC(c3cccs3)N(C)C)c2c1C (configuration not stated) | 97.1
67 | CC(C)(C)c1ccc(-n2ncc3c2CCCC3NC(=O)CN2CCCC2=O)cc1 (configuration not stated) | -2.44
68 | Cc1c(CC(=O)NCCCC(=O)O)c(=O)oc2cc3oc4c(c3cc12)CCCC4 | -3.62
69 | N=c1c(S(=O)(=O)c2ccc(Cl)cc2)cc2c(=O)n3ccccc3nc2n1Cc1cccnc1 | -2.06
70 | CCC(C)N1CC(=O)N2C(c3ccc(OC)cc3OC)c3[nH]c4ccccc4c3C[C@H]2C1=O (some centres not stated) | 6.67
71 | O=C(NCCc1ccccc1)c1ccc(-n2cnnn2)cc1 | -11.9
72 | Cn1c(=O)c2c(nc(NCCCN3CCOCC3)n2Cc2ccc(Cl)cc2)n(C)c1=O | -2.92
73 | Cc1ncc([N+](=O)[O-])n1CC(=O)NCc1ccccc1 | 0.39
74 | CCCCCC(=O)Nc1cccc(C2=NOC3(C2)C[C@@H](C(N)=O)N(C(=O)CC(c2ccccc2)c2ccccc2)C3)c1 (some centres not stated) | 47.9
75 | CC1CCCN(C(=O)CSc2nnc3n(C4CCCC4)c(=O)c4ccccc4n23)C1 (configuration not stated) | 6.34

Row | Structure (SMILES) | inhibition [%]
76 | CCCCn1c(=N)n(CC(O)COc2cccc(C)c2)c2ccccc21 (configuration not stated) | 94.5
77 | COc1ccc(-c2cc3ccc(O)cc3oc2=O)cc1 | 1
78 | CC(=O)c1ccc(NS(=O)(=O)c2ccc3c(c2)N(C)CCO3)cc1 | 0.95
79 | O=C(c1ccccc1)N1CCN(C(=O)c2ccccc2Br)CC1 | -6.74
80 | CCN(CC)CCNC(=O)C1c2ccccc2C(=O)N(CCOC)C1c1ccc(F)cc1 (configuration not stated) | 8.81
81 | Cc1ccc(C)c(C(=O)CCC(=O)N2CCN(c3ncccn3)CC2)c1 | 7.36
82 | O/N=C\c1ccc(-c2ccccc2)o1 | 70.7
83 | O=[N+]([O-])c1ccc(/C=C2\CCC(C3=CCCC3)=C2N2CCOCC2)cc1 | 0.75
84 | COc1ccccc1Nc1nc(=O)[nH]nc1C | -3.57
85 | Cc1c(C(=O)N2CCN(CCc3ccccn3)CC2)oc2ccc(F)cc12 | 0.34
86 | CCN(CC)c1ccc(N2C(=O)/C(=C/c3cccnc3)SC2=S)cc1 | 1.41
87 | N#C/C(=N/O)c1nc(-c2ccc(F)cc2)cs1 | 71.7
88 | Cc1cc(C(=O)NCc2ccccc2)no1 | -3.28
89 | COc1ccc(C2c3[nH]c4ccccc4c3C[C@H]3C(=O)N(CCCO)CC(=O)N23)c(OC)c1 (some centres not stated) | -0.79
90 | CCN1CCN(C(=O)C2CC(c3ccc(F)cc3)=NO2)CC1 (configuration not stated) | 0.03
91 | COCCNC(=O)c1ccc2c(=O)n(CCOC)c(=O)[nH]c2c1 | 0.12
92 | O=C(NCCCc1ccncc1)C1CCC(=O)N(Cc2ccc(Cl)cc2)C1 (configuration not stated) | 0.08
93 | Brc1ccc(-c2ccc(C3Nc4cccc5cccc(c45)N3)o2)cc1 | 90.2
94 | OCCN(Cc1ccccc1)Cc1cccc(C(F)(F)F)c1 | 20.1
95 | CCCC(C)c1nc(C(N)=O)c2[nH]c(=O)n(-c3ccc(OC)c(OC)c3)c2n1 (configuration not stated) | 2.8
96 | O=C(NC1CCCN(c2ccc(C(F)(F)F)cn2)C1)c1ccnc(Cl)c1 (configuration not stated) | 14.9
97 | COCCCNC(=O)c1ccc(Cn2c(=O)c3ccccc3n(Cc3ccccc3C)c2=O)cc1 | 18.4
